In all, about 310,000 compounds went through this assay and about 14,000 (4.5%) showed an effect of 50% or more. The effect is printed as a negative number. The list shows a part of the results.
These compounds were tested against human ether-à-go-go-related gene (hERG) potassium channel (human, UniProt Q12809) (assay: primary screen, population patch clamp on CHO cells stably expressing hERG).
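Further: peak tail current of the secondary pulse compared with the same well before compound.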

Chain of human ether-à-go-go-related gene (hERG) potassium channel (Q12809 whole entry, looked up): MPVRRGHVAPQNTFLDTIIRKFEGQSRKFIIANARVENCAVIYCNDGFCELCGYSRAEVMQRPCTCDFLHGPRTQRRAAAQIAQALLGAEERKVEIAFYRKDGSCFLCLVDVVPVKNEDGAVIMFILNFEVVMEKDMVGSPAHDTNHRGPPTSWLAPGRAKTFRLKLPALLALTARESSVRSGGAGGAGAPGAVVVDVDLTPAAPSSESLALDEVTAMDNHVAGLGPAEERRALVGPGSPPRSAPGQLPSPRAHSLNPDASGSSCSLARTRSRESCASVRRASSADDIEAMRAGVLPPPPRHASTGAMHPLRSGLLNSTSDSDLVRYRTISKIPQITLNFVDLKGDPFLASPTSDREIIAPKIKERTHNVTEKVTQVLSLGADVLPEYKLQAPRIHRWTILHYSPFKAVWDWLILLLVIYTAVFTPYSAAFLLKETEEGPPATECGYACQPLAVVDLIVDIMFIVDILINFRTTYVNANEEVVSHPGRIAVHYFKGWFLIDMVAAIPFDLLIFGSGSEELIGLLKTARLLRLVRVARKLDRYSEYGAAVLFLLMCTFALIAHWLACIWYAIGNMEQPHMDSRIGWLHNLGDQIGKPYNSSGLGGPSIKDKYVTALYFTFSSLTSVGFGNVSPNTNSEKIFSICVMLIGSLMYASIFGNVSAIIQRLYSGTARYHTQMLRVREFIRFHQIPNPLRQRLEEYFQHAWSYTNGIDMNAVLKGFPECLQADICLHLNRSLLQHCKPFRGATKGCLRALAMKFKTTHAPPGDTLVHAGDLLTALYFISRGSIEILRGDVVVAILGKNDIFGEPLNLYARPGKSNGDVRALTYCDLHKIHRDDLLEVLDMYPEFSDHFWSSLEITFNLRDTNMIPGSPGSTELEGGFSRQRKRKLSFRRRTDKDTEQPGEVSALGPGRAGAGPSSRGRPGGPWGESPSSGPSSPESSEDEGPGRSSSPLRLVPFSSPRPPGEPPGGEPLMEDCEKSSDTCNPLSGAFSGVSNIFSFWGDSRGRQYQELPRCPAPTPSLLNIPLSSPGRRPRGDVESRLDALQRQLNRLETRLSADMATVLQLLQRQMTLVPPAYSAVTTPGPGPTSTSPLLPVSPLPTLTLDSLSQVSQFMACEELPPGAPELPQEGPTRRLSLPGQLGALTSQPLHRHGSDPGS

| SMILES | hERG current change (%, negative = inhibition) at 10uM [%] |
| --- | --- |
| CCC(C)N(C(=O)CSc1nc(C)nc2ccccc12)C1CCS(=O)(=O)C1 (stereo not shown) | -30.1 |
| CCN(CC)S(=O)(=O)c1ccc(Cl)c(NC(=O)COC(=O)c2ccc([N+](=O)[O-])o2)c1 | -16.7 |
| Cc1ccc(-c2c(C#N)c(N)nc3c2CCCCC3)cc1 | 2.26 |
| COc1ccc(CN2CCCC(C(=O)c3cccc(C(F)(F)F)c3)C2)cc1O (stereo not shown) | -62.2 |
| CCOC(=O)N1CCN(C(=O)c2ccc(C)c(S(=O)(=O)Nc3cccc(C)c3C)c2)CC1 | -43.1 |
| O=C/C(=C\Nc1ccc(C(=O)N2CCOCC2)cc1)c1nc2ccccc2o1 | -15.4 |
| COc1cccc(CNS(=O)(=O)c2ccc(S(=O)(=O)N3CCCC3)cc2)c1 | 7.51 |
| COC(=O)n1c(=O)oc2ccccc21 | 7.08 |
| CSc1nsc(NC(=O)OCc2ccc(Cl)cc2)n1 | 14.2 |
| CCn1c(SCC(=O)NC(=O)NC(C)(C)C)nc2ccccc21 | 4.41 |
| CCCNC(=O)C(Cc1ccc(OC)cc1)NC(=O)c1ccc(Cl)cc1 (stereo not shown) | -3.23 |
| CCOC(=O)c1c(C)n(C)c2ccc(OC)c(NC(=O)CCN3CCC(Cc4ccccc4)CC3)c12 | -34.3 |
| COc1cc(O)cc2c1C(=O)OC(C)CCCC(=O)CCC/C=C\2 (stereo not shown) | 13.7 |
| CC1CC(NC(=O)C2C3CCC(O3)C2C(=O)O)CC(C)(C)C1 (stereo not shown) | -0.116 |
| Cc1cc(C)c(NC(=O)c2ccccc2N(C)S(C)(=O)=O)c(C)c1 | 10.3 |
| N#CCC(=N)N1CCN(c2cccc(Cl)c2)CC1 | -42 |
| O=C(COc1ccc(S(=O)(=O)N2CCCCC2)cc1)NCc1cccnc1 | 3.06 |
| O=C(Nc1ccc(Cl)cc1)Nc1ccc(N2CCOCC2)cc1 | 16.6 |
| CC(=O)c1c(C)[nH]c(C(=O)Nc2ccccc2N2CCOCC2)c1C | 0.917 |
| CC(=O)Nc1ccc(N/C=C(\C#N)S(=O)(=O)c2ccc(Cl)cc2)cc1 | 12.6 |
| COc1ccc(/C=C2\SC(=S)N(CCC(=O)NC3C=CS(=O)(=O)C3)C2=O)cc1 (stereo not shown) | -3.89 |
| CN(CC(=O)Nc1ccccc1Br)C(=O)C(Cc1ccccc1)NC(=O)c1ccccc1 (stereo not shown) | -16.8 |
| CS(=O)(=O)c1cnc(-c2cccnc2)nc1N | 24.1 |
| O=Cc1ccccc1Oc1ccccc1 | 11.5 |
| COc1cc(CN2CCN(S(=O)(=O)c3ccc(NC(C)=O)cc3)CC2)cc(OC)c1O.O=C(O)C(=O)O | -5.22 |
